Results published in article PMC4336329 (PLoS ONE, 2015).
The whole screen tested about 310,000 compounds, of which about 14,000 (4.5%) showed an effect of 50% or more. Effects have a minus sign here. Some of the results follow.

Biological target: human ether-à-go-go-related gene (hERG) potassium channel (human, UniProt Q12809)
Assay: primary screen, population patch clamp on CHO cells stably expressing hERG
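Further: peak tail current of the secondary pulse compared with the same well before compound.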

Chain of human ether-à-go-go-related gene (hERG) potassium channel (Q12809 whole entry, looked up): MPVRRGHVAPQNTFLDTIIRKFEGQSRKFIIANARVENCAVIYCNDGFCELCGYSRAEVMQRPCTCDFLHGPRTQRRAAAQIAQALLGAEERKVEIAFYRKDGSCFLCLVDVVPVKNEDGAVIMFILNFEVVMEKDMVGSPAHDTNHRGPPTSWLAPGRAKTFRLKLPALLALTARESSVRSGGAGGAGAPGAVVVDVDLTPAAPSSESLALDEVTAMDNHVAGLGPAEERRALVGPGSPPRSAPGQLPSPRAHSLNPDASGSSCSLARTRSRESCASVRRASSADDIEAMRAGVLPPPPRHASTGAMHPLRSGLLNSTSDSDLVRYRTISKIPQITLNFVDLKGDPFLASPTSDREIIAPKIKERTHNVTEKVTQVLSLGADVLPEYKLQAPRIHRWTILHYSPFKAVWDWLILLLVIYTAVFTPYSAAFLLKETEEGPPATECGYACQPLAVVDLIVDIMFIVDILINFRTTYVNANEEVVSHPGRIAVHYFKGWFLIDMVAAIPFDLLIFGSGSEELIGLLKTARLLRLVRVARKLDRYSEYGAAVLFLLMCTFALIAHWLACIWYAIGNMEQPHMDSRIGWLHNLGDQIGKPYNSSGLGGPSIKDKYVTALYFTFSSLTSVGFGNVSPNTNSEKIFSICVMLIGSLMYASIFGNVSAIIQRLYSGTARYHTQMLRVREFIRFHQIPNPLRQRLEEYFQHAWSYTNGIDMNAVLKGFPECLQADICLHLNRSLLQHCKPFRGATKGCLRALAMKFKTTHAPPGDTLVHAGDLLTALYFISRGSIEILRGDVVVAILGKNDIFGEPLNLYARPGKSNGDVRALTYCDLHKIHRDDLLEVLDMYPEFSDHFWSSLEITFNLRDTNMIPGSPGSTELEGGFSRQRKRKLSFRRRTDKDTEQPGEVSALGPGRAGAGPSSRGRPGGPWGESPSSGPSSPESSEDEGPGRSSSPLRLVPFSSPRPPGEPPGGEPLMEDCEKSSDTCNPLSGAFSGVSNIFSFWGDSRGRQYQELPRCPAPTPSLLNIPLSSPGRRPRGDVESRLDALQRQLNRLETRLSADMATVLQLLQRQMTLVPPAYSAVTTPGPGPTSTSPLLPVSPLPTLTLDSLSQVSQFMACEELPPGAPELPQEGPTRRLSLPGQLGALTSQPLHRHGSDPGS

Compound | hERG current change (%, negative = inhibition) at 10uM [%]
CC1(C)Cc2ccccc2C(NNC(=O)c2ccncc2)=N1 | 18.5
COc1cccc(NC(=S)NNC(=O)CCn2cc([N+](=O)[O-])cn2)c1 | -2.61
COC(=O)c1cc2sccc2n1Cc1nc(-c2ccc(OC)cc2)oc1C | -6.52
COc1ccc(C)cc1N(CC(=O)NCCSCc1cccc(Cl)c1)S(C)(=O)=O | -10.7
COC(=O)c1sccc1NC(=O)Cn1nnc(-c2ccc(C)cc2)n1 | 0.599
CCOc1cc(C(=O)NC(=S)Nc2cccnc2)cc(OCC)c1OCC | -36.4
CCOc1ccc(CCNC(=O)C2CCCN(S(=O)(=O)N3CCOCC3)C2)cc1OCC (centres unmarked) | 0.332
Cc1ccc(NC(=O)C(C)N2C(=O)c3ccccc3S2(=O)=O)cc1Cl (centres unmarked) | 13.8
O=C(O)Cn1cc(C(=O)c2cccs2)c2ccccc21 | 8.08
CNC[C@H](CC1CCCCC1)NC[C@H](CO)NCCc1cccc(C(F)(F)F)c1 | -13.5
C/C(CC1CC(C)(C)OC1=O)=N/Nc1nc(-c2ccccc2)cs1 (centres unmarked) | -0.0742
COC(=O)c1ccc(NC(=O)COC(=O)COc2cccc3c2OC(C)(C)C3)cc1 | 7.85
CC(=O)c1cc(CN2CCC(C(=O)Nc3ccc(-n4nc(C)cc4C)cc3)CC2)cs1 | -15.7
CC(=O)N1Cc2cc(N)ccc2Oc2ccccc21 | 9.9
COc1cccc(N2CCN(C(=O)c3ccc(CS(=O)c4ccccc4C)o3)CC2)c1 (centres unmarked) | -4.71
Cc1nn(-c2ccccc2)c2sc(C(=O)n3cccn3)cc12 | 1.81
COc1ccccc1OCCC(=O)OCC(=O)NC(C)c1ccccc1 (centres unmarked) | 4.92
N#CCC(=O)N1CC2(CC(c3cccc(NC(=O)COc4ccc(Cl)cc4)c3)=NO2)C[C@@H]1C(N)=O (some centres unmarked) | -2.55
O=C(CCSc1ccccc1)NC(=O)COC(=O)c1ccc(OC(F)F)cc1 | 2.09
Cn1nc(C(=O)NCc2ccco2)c2ccccc2c1=O | 5.4
Cc1ccc(NC(=S)NCc2ccc(F)cc2)c(C)c1 | -2.46
CC(=O)c1cccc(NC(=S)N2CCN(S(=O)(=O)c3ccc(F)cc3)CC2)c1 | -2.13

Compound | hERG current change (%, negative = inhibition) at 10uM [%]
O=C(NCc1ccccn1)C(=O)Nc1nc(-c2ccccc2)cs1 | 10.3
CC(C)c1onc(C(=O)NCc2ccc(Cl)cc2)c1[N+](=O)[O-] | 11
Cc1ccccc1-c1nnc(NC(=O)CSc2nc3ccccc3s2)s1 | 6.88
O=C(Nc1ccccc1C(=O)N/N=C/c1ccc(O)cc1)c1ccccc1 | 6.19
COc1ccc(NC(=O)Nc2cc(C)ccc2F)cc1 | 0.822
COCCCNC(=O)CCn1c(=O)c2ccccc2n(CC(=O)NCCc2ccc(OC)c(OC)c2)c1=O | -0.597
Cc1ccc(-c2nc(SCC(N)=O)c(C#N)c3c2CCCC3)cc1 | -4.07
COC(=O)c1cc(Cl)nc2ccccc12 | -7.89
COc1ccc(N2C(=O)C3CCCN3C2c2cccc(C)c2)cc1Cl (centres unmarked) | -31.3
CC(C)C[C@@H](CSc1ccc(Br)cc1)N1CCN(CCc2ccccc2)CCC1=O | -70.6
Cc1nn(-c2ccccc2)c(Cl)c1C(=O)NCC(C)c1ccccc1 (centres unmarked) | -26.1
c1ccc(-c2ccc(C3=Nn4c(Cn5nnc6ccccc65)nnc4SC3)cc2)cc1 | 15.2
CCOC(=O)[C@]1(C#N)[C@@H]2C=CC(C(N)=O)=CN2[C@@H](C(N)=O)[C@@H]1c1ccc(F)cc1 | 5.67
COc1ccc(N(CC(=O)NC2CCCC2)C(=O)CCC(=O)Nc2cc(C)on2)cc1OC | -6.45
CCn1nc2cc(C(=O)NCCc3cccs3)ccc2c1OC | -12.5
CO/N=C\CC(=O)Nc1ccc(Cl)c(Cl)c1 | 19.6
COc1ccc(CCNC(=O)c2ccccc2NC(=O)c2ccco2)cc1OC | -24
COc1ccc(/C(N)=N/OC(=O)Cc2ccccc2OC)cc1 | -8.85
COc1ccc(NC(=O)C2CCN(S(=O)(=O)c3ccc4c(c3)CC(C)N4C(C)=O)CC2)cc1OC (centres unmarked) | 20
CCCCNC(=O)C(Sc1ccccc1)c1ccccc1 (centres unmarked) | 0.0978
C#CCNC(=O)C1=C[C@@H](c2ccc(Br)cc2)[C@H](CCCO)[C@@H](OCC)O1 | -28.4
CCn1c(=O)c([N+](=O)[O-])c(NCCc2ccccc2)c2ccccc21 | 17.7

Compound | hERG current change (%, negative = inhibition) at 10uM [%]
COc1cc(C(=O)N/N=C/c2ccc(OC(=O)c3ccccc3)c(OC)c2)ccc1O | 19.9
COc1ccccc1NC(=O)CN1CCN(CC(=O)Nc2ccc(OC)c(OC)c2)CC1 | -24.4
Cc1cc(NC(=O)NCc2ccccc2)c(=O)n(Cc2ccccc2F)c1 | 18.5
Cc1ccc(Cn2nnc3c(=O)n(CC(=O)N4CCCc5ccccc54)cnc32)cc1 | -4.61
CCS(=O)(=O)N1CCN(c2ccc(C(=O)NC34CC5CC(CC(C5)C3)C4)cc2[N+](=O)[O-])CC1 | -10.9
Cc1cc2ncn(CC(O)COC3CCCCC3)c2cc1C (centres unmarked) | 3.46
Cc1ccc(CN2CC(C(=O)OCc3ccccc3Cl)CC2=O)cc1 (centres unmarked) | 0.354
Cc1ccc(Cl)c2sc(NC(=O)C3=COCCO3)nc12 | 6.73
O=CNC1CCCc2c1[nH]c1ccc(Cl)cc21 (centres unmarked) | -9.15
O=C(CCN1CCN(S(=O)(=O)c2ccc(Cl)cc2)CC1)Nc1ccc(F)cc1 | -35.2
CCc1ccc(S(=O)(=O)/N=C2\C=CC(=O)c3ccccc32)cc1 | 7.42
O=C(Cn1nc(CNc2ccc(Cl)cc2)[n+]2c1CCCCC2)c1ccccc1.[Br-] | 9.17
COc1cc(NC(=O)C2C3CCC(O3)C2C(=O)O)cc(OC)c1 (centres unmarked) | 26.1
Cc1cccn2cc(-c3ccc4c(c3)NC(=O)CO4)nc12 | -26.9
Cn1cccc1CC(=O)N/N=C/c1ccc(Cl)cc1 | 2.15
COc1cc(-c2cc(-c3ccc(F)cc3)nc(N)c2C#N)ccc1O | 17.9
COc1ccc(C(CCNCc2ccc(OC)c(OC)c2)c2ccc(F)cc2)cc1 (centres unmarked) | -71.3
O=P(NC(c1ccccc1)c1ccccc1)(Oc1ccccc1)Oc1ccccc1 | -8.12
S=C(NC1CCCCC1)N1CCN(C/C=C/c2ccccc2)CC1 | -21.8
COc1ccc2c3c([nH]c2c1)C(C)NCC3 (centres unmarked) | -2.31
COc1cc2c(C)nc3c(cnn3-c3ccccc3)c2cc1OC | -16.1
Cc1cc(C)n(-c2ccc(C(=O)OCC(=O)Nc3ccc(S(=O)(=O)N4CCCCC4)cc3)cc2)n1 | 25.2

Compound | hERG current change (%, negative = inhibition) at 10uM [%]
CC(C)COC(=O)N1CC(O)CC1C(=O)Nc1ccc2c(c1)OCO2 (centres unmarked) | 2.36
CC(=O)C[C@H]1c2cc(C(F)(F)F)ccc2S(=O)(=O)N1C1CCCCC1 | -4.42
CCOc1ccc(S(=O)(=O)NCCC(=O)NCCc2ccc(OCC)c(OCC)c2)cc1 | 8.73
O=C(COC(=O)CCc1nc2ccccc2c(=O)[nH]1)Nc1ccccc1OC(F)F | 16.8
CN1C(=O)C(=Cc2cc([N+](=O)[O-])ccc2N2CCCCC2)C(=O)N(C)C1=O | 19.3
Cc1ccc(C2=[N+]([O-])C(C)N(O)C2(C)C)o1 (centres unmarked) | 3.66
CC(c1ccccc1)C1CC(=O)N(Cc2ccco2)C1=O (centres unmarked) | 25.9
COc1cc(C(=O)Nc2nc(OC)c(-c3ccccc3)c(OC)n2)cc(OC)c1OC | -0.662
CCOC(=O)c1c(NC(C)=O)sc2c(OCCN(CC)CC)c(Br)ccc12 | -54.8
COc1ccc(/C=C/C(=O)Nc2ccccc2)cc1S(=O)(=O)N1CCOCC1 | -52.2
Cn1c(=O)n(CCCO)c(=O)c2c1nc1n2CCCN1Cc1ccccc1 | -9.65
COc1cccc(C(C(=O)NC2CCCC2)N(C(=O)c2csnn2)C2CC2)c1 (centres unmarked) | -19.3
COc1ccc(CNC(=O)C2CCCN2C(=O)NCc2ccccc2)cc1 (centres unmarked) | -22.2
CC1=C(C(=O)N(C)C)C(c2cccs2)NC(=O)N1 (centres unmarked) | 4.82
CN1CCN(CC(=O)NC23CC4CC(CC(C4)C2)C3)CC1.Cl | 4.19
Cc1ccc(CNC(=O)COC(=O)COc2ccc(C#N)cc2)cc1 | -5.35
COc1ccc(Cl)cc1NC(=O)CN(C)C(=O)C1CC(=O)N(Cc2ccc(C)cc2)C1 (centres unmarked) | -50
COc1cc(NC(=O)C2COc3ccccc3O2)c(OC)cc1Cl (centres unmarked) | -11.1
NS(=O)(=O)c1ccc(O)c(N2C(=O)c3cccc4c(C(=O)O)ccc(c34)C2=O)c1 | 15.7
CCCCNC(=O)Nc1ccc(C2SCCS2)cc1 | 4.76
